Measurements: PubChem BioAssay AID624173 (National Center for Advancing Translational Sciences (NCATS), 2012)
About 490 (0.12%) of roughly 410,000 compounds were called active. The inconclusive results got no clear call from the source; some entries with a clear call stand among them for comparison. Calls come from the whole dose curve; as a rule, active = well fitted inhibition curve with a large enough effect; inconclusive = small, poorly fitted or top-dose-only effect; inactive = flat fitted curve, though single readings scatter. Potencies beside an inconclusive call are fits to weak or partial responses and may not hold up.

Molecular target: pyruvate kinase (Trypanosoma brucei) (UniProt Q57TT1)
Assay: qHTS of Trypanosoma Brucei Inhibitors; note: nearly all actives have a fitted effect of over 50% in size
Details: TbPYK enzyme, Kinase-Glo Plus ATP luminescence, 45 min; series mostly up to 76.8 µM; activity, negative = inhibition: at the top concentration
In short: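 Assay buffer: 50 mM TEA pH 7.2, 100 mM KCl, 10 mM MgCl2, 0.05% BSA, 0.01% Tween-20. Pyruvate kinase from T. brucei plus substrate met compound, then ADP (130 uM final). Luminescence was read post 45 min RT.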
% is set by controls: 0 for no effect and ±100 for the full control effect; potency is the fitted concentration of half-maximal effect; tags give direction and shape of the fitted curve.

Row | SMILES | activity, negative = inhibition | Potency
1 | Cc1c(C(=O)N2CCCC2)c(S(=O)(=O)Nc2ccccc2)c(C)n1C | inactive: 2.69% | –
2 | COc1ccc(Cc2nc3ccc(C(=O)N4CCCC4)cc3o2)cc1OC | inactive: -3.4% | –
3 | Cc1cc(C)c(C(=O)/C=C/c2ccco2)c(=O)[nH]1 | – | inconclusive: 31.6 µM [inhibitor, single point]
4 | Cc1nc(CNC(=O)c2ccccc2OC2CCN(S(C)(=O)=O)CC2)cs1 | inactive: -17.6% | –
5 | CCOC(=O)Cc1ccc2sc(-c3ccccc3)nc2c1 | – | inconclusive: 20 µM [inhibitor, partial curve]
6 | CCOC(=O)c1ccc(-c2ccc(C3Nc4ccccc4C(=O)N3O)o2)cc1 (stereo unspecified) | inactive: -4.97% | –
7 | CC1(C)C2CCC1(C)C(OC(=O)C[n+]1ccccc1)C2 (stereo unspecified) | – | inconclusive: 31.6 µM [inhibitor, partial curve, poor fit]
8 | Cc1ccc(S(=O)(=O)N(Cc2n[nH]c(=S)n2-c2ccccc2)c2ccccc2)cc1 | – | active: 7.94 µM
9 | CCNc1cc2c(cc1O)CCC1C2CCC2(C)C(O)CCC12 (stereo unspecified) | – | inconclusive: 17.8 µM [inhibitor, partial curve, poor fit]
10 | O=C(NNc1c([N+](=O)[O-])cc(C(F)(F)F)cc1[N+](=O)[O-])c1ccco1 | – | inconclusive: 39.8 µM [inhibitor, partial curve, poor fit]
11 | N#Cc1ccc(Cn2ccnc2C(=O)Nc2ccccc2)cc1 | inactive: 0.427% | –
12 | O=C1C(Cl)=C(N2CCCCC2)C(=O)C(Cl)=C1c1cnc(N2CCCCC2)s1 | – | inconclusive: 15.8 µM [inhibitor, partial curve, poor fit]
13 | COc1ccc(C2CC(=O)N3CN(Cc4ccco4)CSC3=C2C#N)cc1 (stereo unspecified) | – | inconclusive: 12.6 µM [inhibitor, partial curve, poor fit]
14 | CCCCCC(C)NC(=O)c1cc(S(=O)(=O)N2CCCCC2)ccc1N1CCOCC1 (stereo unspecified) | inactive: 0% | –
15 | O=C(CSc1ccc(-c2nc3ccccc3[nH]2)cn1)N1CCN(C(=O)c2ccco2)CC1 | – | inconclusive: 25.1 µM [inhibitor, partial curve, poor fit]
16 | Fc1ccc(-n2c(Cc3cccs3)n[nH]c2=S)cc1Cl | – | inconclusive: 25.1 µM [inhibitor, partial curve, poor fit]
17 | C=CCn1c(C(CCCC)CC(O)COCCC)n[nH]c1=S (stereo unspecified) | – | inconclusive: 28.2 µM [inhibitor, partial curve]
18 | Cc1ccc(OCc2n[nH]c(=S)n2-c2ccccc2)cc1 | – | inconclusive: 6.31 µM [inhibitor, full curve]
19 | O=c1c2sccc2[nH]c(=S)n1Cc1ccccc1 | – | inconclusive: 22.4 µM [inhibitor, partial curve]
20 | c1ccc(-c2cnc(-c3cccnc3)o2)cc1 | inactive: 2.99% | –
21 | O=[N+]([O-])c1ccccc1/C=C/C=N/n1c(-c2ccccc2)n[nH]c1=S | – | inconclusive: 3.98 µM [inhibitor, full curve]
22 | COc1ccc(CN2C(=O)CS/C2=N/N=C/c2ccccc2)cc1 | inactive: 0.964% | –
23 | COc1ccc(C(=O)N(c2ccc(C)cc2)S(=O)(=O)c2ccc(C)cc2)cc1 | inactive: -1.98% | –

Row | SMILES | activity, negative = inhibition | Potency
24 | O=c1nccc(Nc2ccccc2)[nH]1 | inactive: -1.08% | –
25 | O=C(CSc1nnc(-c2c[nH]c3ccccc23)n1-c1ccc(F)cc1)NCc1ccco1 | – | inconclusive: 22.4 µM [inhibitor, partial curve, poor fit]
26 | Cc1cc(C(=O)NCc2ccccc2)c2c(C)nn(-c3cccc(Cl)c3C)c2n1 | inactive: -7.61% | –
27 | CC1CCN(C(=S)NC(=O)c2cccs2)CC1 | – | inconclusive: 17.8 µM [inhibitor, partial curve, poor fit]
28 | CCc1c(C)nc2ncnn2c1NCCc1ccccc1 | inactive: 2.2% | –
29 | O=C(CSc1nnc(-c2cccnc2)n1-c1ccccc1)Nc1ccccn1 | – | inconclusive: 35.5 µM [inhibitor, single point]
30 | S=c1[nH]nc(C2COc3ccccc3O2)o1 (stereo unspecified) | – | inconclusive: 15.8 µM [inhibitor, partial curve, poor fit]
31 | CNc1sc(C(=O)c2cccs2)c(N)c1-c1nc2ccccc2s1 | – | inconclusive: 6.31 µM [inhibitor, partial curve, poor fit]
32 | COc1ccc(NC(=O)c2cccc(S(=O)(=O)NCc3ccco3)c2)c(OC)c1 | inactive: 2.3% | –
33 | S=c1nc(-c2cccc(Cl)c2)[nH][nH]1 | – | inconclusive: 7.94 µM [inhibitor, partial curve]
34 | Cc1ccc2[nH]c(=O)c(CN(Cc3cccs3)S(=O)(=O)c3ccc4c(c3)OCCO4)cc2c1 | – | inconclusive: 50.1 µM [inhibitor, partial curve, poor fit]
35 | CCS(=O)(=O)n1nc(-c2ccc(C)cc2)nc1N | inactive: 2.7% | –
36 | O=S(=O)(NC(=S)NC1CCCCC1)c1ccccc1 | inactive: 1.66% | –
37 | CC1CCCCC12NC(=S)N(c1ccccc1)N2 (stereo unspecified) | – | inconclusive: 5.62 µM [inhibitor, full curve]
38 | CCCSc1ncnc2c1c(-c1ccccc1)cn2-c1ccccc1OC | inactive: 1.32% | –
39 | COC(=O)c1ccc(-n2nnnc2SC)cc1 | – | inconclusive: 39.8 µM [inhibitor, single point]
40 | O=C1NN(c2ccccc2)C(=O)/C1=C\c1ccc(-c2cc([N+](=O)[O-])ccc2O)o1 | – | inconclusive: 35.5 µM [inhibitor, partial curve]
41 | Cc1ccc(NC(=O)CCC(=O)c2cccs2)c(O)c1 | inactive: 2.42% | –
42 | O=C(NCC1CC1)c1ccc(Nc2nc3ccc(Br)cc3[nH]2)cc1 | – | inconclusive: 44.7 µM [inhibitor, single point]
43 | S=c1[nH]c(-c2ccccc2)cn1/N=C/c1cccs1 | – | inconclusive: 3.16 µM [inhibitor, full curve]
44 | O=C1NC(=O)N(c2ccc3c(c2)OCO3)C(=O)/C1=C\c1ccsc1 | – | inconclusive: 28.2 µM [inhibitor, partial curve]
45 | COCCCNC(=S)N1CCN(S(=O)(=O)c2ccc(OC)cc2)CC1 | – | inconclusive: 2 µM [inhibitor, full curve, poor fit]
46 | CCN(CC)c1ccc(C=C2SC(=S)NC2=O)cc1 | – | inconclusive: 31.6 µM [inhibitor, single point]
